Assay results published in paper PMC11180213, “Development of an anti-tauopathy mucosal vaccine specifically targeting pathologic conformers” (NPJ Vaccines, 2024).

Target: the molecule itself
Experiment: native gel or EMSA; 10% native PAGE of 20 ug freshly purified TauRD or heparin-treated TauRD (heparin:TauRD 1:8, 5 days, 37 °C, in PBS), incubated with thioflavin S for 15 min at room temperature; fluorescence imaging of the gel

B1: recombinant TauRD polypeptide (tau repeat domain, 2N4R-hTau […]) (domain or fragment)
chain: not shown
notes: microtubule-associated protein tau, human, 4R-tau repeat region, […]; numbers count on: 2N4R human tau; Codon-optimised synthetic DNA cloned EcoRI-XhoI into pTYB12; A few vector-derived residues may remain at the ends after intein cleavage (surmised from the cloning sites); also called 4R-TauRD; 4R-tau repeat region; source: E. coli ER2566, purified (chitin bead column, IMPACT-CN System); …
  binding result: binds
